Here are results for 4 molecules from the supplement of paper PMC11741623.

The labels stand for the following.
B1: CHP1, Q99653 (protein)
chain: MGSRASTLLRDEELEEIKKETGFSHSQITRLYSRFTSLDKGENGTLSREDFQRIPELAINPLGDRIINAFFPEGEDQVNFRGFMRTLAHFRPIEDNEKSKDVNGPEPLNSRSNKLHFAFRLYDLDKDEKISRDELLQVLRMMVGVNISDEQLGSIADRTIQEADQDGDSAISFTEFVKVLEKVDVEQKMSIRFLH
B2: CNPY3, Q9BT09 (protein)
chain: MDSMPEPASRCLLLLPLLLLLLLLLPAPELGPSQAGAEENDWVRLPSKCEVCKYVAVELKSAFEETGKTKEVIGTGYGILDQKASGVKYTKSDLRLIEVTETICKRLLDYSLHKERTGSNRFAKGMSETFETLHNLVHKGVKVVMDIPYELWNETSAEVADLKKQCDVLVEEFEEVIEDWYRNHQEEDLTEFLCANHVLKGKDTSCLAEQWSGKKGDTAALGGKKSKKKSSRAKAAGGRSSSSKQRKELGGLEGDPSPEEDEGIQKASPLTHSPPDEL
B3: DDX19B, Q9UMR2 (protein)
chain: MATDSWALAVDEQEAAAESLSNLHLKEEKIKPDTNGAVVKTNANAEKTDEEEKEDRAAQSLLNKLIRSNLVDNTNQVEVLQRDPNSPLYSVKSFEELRLKPQLLQGVYAMGFNRPSKIQENALPLMLAEPPQNLIAQSQSGTGKTAAFVLAMLSQVEPANKYPQCLCLSPTYELALQTGKVIEQMGKFYPELKLAYAVRGNKLERGQKISEQIVIGTPGTVLDWCSKLKFIDPKKIKVFVLDEADVMIATQGHQDQSIRIQRMLPRNCQMLLFSATFEDSVWKFAQKVVPDPNVIKLKREEETLDTIKQYYVLCSSRDEKFQALCNLYGAITIAQAMIFCHTRKTASWLAAELSKEGHQVALLSGEMMVEQRAAVIERFREGKEKVLVTTNVCARGIDVEQVSVVINFDLPVDKDGNPDNETYLHRIGRTGRFGKRGLAVNMVDSKHSMNILNRIQEHFNKKIERLDTDDLDEIEKIAN
B4: VSIG2, Q96IQ7 (protein)
chain: MAELPGPFLCGALLGFLCLSGLAVEVKVPTEPLSTPLGKTAELTCTYSTSVGDSFALEWSFVQPGKPISESHPILYFTNGHLYPTGSKSKRVSLLQNPPTVGVATLKLTDVHPSDTGTYLCQVNNPPDFYTNGLGLINLTVLVPPSNPLCSQSGQTSVGGSTALRCSSSEGAPKPVYNWVRLGTFPTPSPGSMVQDEVSGQLILTNLSLTSSGTYRCVATNQMGSASCELTLSVTEPSQGRVAGALIGVLLGVLLLSVAAFCLVRFQKERGKKPKETYGGSDLREDAIAPGISEHTCMRADSSKGFLERPSSASTVTTTKSKLPMVV

The list shows a part of the results. Interaction screen of human proteins with wild-type SARS-CoV-2 proteins by split-DHFR complementation in yeast, 1 µg/mL methotrexate. Value = fitness of the pair (three or more lineages) minus that of the viral protein without a human partner, on a scale set by negative (0) and fused positive (1) controls, mean of up to three cultures; higher = more likely to interact. Active = false discovery rate below 0.05 (one-sided t-test) in at least one culture. Nearly all pairs are not hits, and differences among them are mostly noise (correlation between cultures about 0.3); most hits were seen in one culture only. Human sequences are the Swiss-Prot entries looked up by gene name; the clone may be another isoform. NSP2 values were corrected by the authors for a growth advantage. Listed are human proteins with a hit and a random twelfth of the others.

The target of the first test is SARS-CoV-2 E. The test can be described thus: yeast fitness gain over the viral ORF with no human partner (scaled fitness); higher = more likely to interact. The procedure:
(§1)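 Split mouse DHFR complementation in pooled diploid yeast: human ORFeome clones carry one fragment and viral ORFs the other; barcoded lineages compete in 1 µg/mL methotrexate and fitness is read by barcode sequencing in up to three cultures.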
Turning to B1, the yeast fitness gain is inactive: 0.0298.

As to B2, the yeast fitness gain is inactive: 0.00608.

Consider B3, for which the yeast fitness gain is inactive: 0.0499.

B4: the yeast fitness gain is inactive: 0.0517.

The target in a further test is SARS-CoV-2 M. Described as above. The procedure:
as §1
Take B1: the yeast fitness gain is inactive: -0.0139.

As for B2, the yeast fitness gain is inactive: -0.0779.

On to B3, for which the yeast fitness gain is inactive: -0.00982.

B4: the yeast fitness gain was inactive: 0.0164.

A further test deals with SARS-CoV-2 NSP1. The description is as above. How it is done: as §1
With B1, the yeast fitness gain is inactive: 0.061.

Consider B2, for which the yeast fitness gain is inactive: 0.00233.

With B4, the yeast fitness gain is inactive: -0.042.

A further test addresses SARS-CoV-2 NSP10. The test is described as above. How it is done:
as §1
Consider B1, for which the yeast fitness gain is inactive: 0.00353.

Take B2: the yeast fitness gain is inactive: -0.0367.

On to B4, for which the yeast fitness gain was inactive: -0.0192.

The next test deals with SARS-CoV-2 NSP12. The test is described as above. The procedure: as §1
Consider B1, for which the yeast fitness gain was inactive: 0.0461.

With B2, the yeast fitness gain is inactive: 0.0372.

With B4, the yeast fitness gain was inactive: 0.0429.

Another test deals with SARS-CoV-2 NSP13. The test is described as above. How it is done: as §1
Regarding B1, the yeast fitness gain is inactive: 0.0636.

As for B2, the yeast fitness gain was inactive: 0.0484.

Regarding B4, the yeast fitness gain was inactive: 0.00757.

Another test has as its target SARS-CoV-2 NSP14. The test is described as above. How it is done: as §1
With B1, the yeast fitness gain is inactive: -0.0947.

With B2, the yeast fitness gain was inactive: -0.255.

The next test deals with SARS-CoV-2 NSP15. The description is as above. How it is done: as §1
B1: the yeast fitness gain is inactive: -0.0237.

Consider B2, for which the yeast fitness gain is inactive: 0.0324.

Turning to B3, the yeast fitness gain was inactive: -0.147.

The next test addresses SARS-CoV-2 NSP16. The test is described as above. How it is done: as §1
For the molecule B1, the yeast fitness gain was inactive: 0.194.

For the molecule B2, the yeast fitness gain was inactive: -0.06.

Consider B3, for which the yeast fitness gain is inactive: -0.0803.

Another test has as its target SARS-CoV-2 NSP2. Described as above. How it is done:
as §1
For B1, the yeast fitness gain is inactive: -0.0154.

On to B2, for which the yeast fitness gain was inactive: -0.0923.

For B4, the yeast fitness gain was inactive: 0.0301.

The target of a further test is SARS-CoV-2 NSP4. Described as above. How it is done: as §1
Turning to B1, the yeast fitness gain is inactive: -0.0318.

For B2, the yeast fitness gain is inactive: 0.0146.

For the molecule B3, the yeast fitness gain is inactive: 0.08.

Another test addresses SARS-CoV-2 NSP5. The test is described as above. How it is done: as §1
On to B1, for which the yeast fitness gain is inactive: -0.00632.

Take B2: the yeast fitness gain is inactive: -0.0128.

On to B4, for which the yeast fitness gain is inactive: -0.0232.

A further test deals with SARS-CoV-2 NSP6. Described as above. How it is done:
as §1
On to B1, for which the yeast fitness gain was inactive: 0.08.

As to B2, the yeast fitness gain was inactive: -0.0261.

As to B3, the yeast fitness gain was inactive: -0.000656.

Consider B4, for which the yeast fitness gain was inactive: 0.00298.

The next test concerns the target SARS-CoV-2 NSP7. The test is described as above. The procedure:
as §1
For B1, the yeast fitness gain was inactive: -0.00955.

With B2, the yeast fitness gain was inactive: 0.0717.

A further test has as its target SARS-CoV-2 NSP8. The description is as above. How it is done:
as §1
B1: the yeast fitness gain was inactive: -0.0213.

For B2, the yeast fitness gain is inactive: -0.00393.

Take B4: the yeast fitness gain is inactive: -0.51.

A further test concerns the target SARS-CoV-2 NSP9. Described as above. The procedure: as §1
With B1, the yeast fitness gain is inactive: -0.0731.

On to B2, for which the yeast fitness gain is inactive: 0.0447.

As for B3, the yeast fitness gain is inactive: 0.0132.

The next test concerns the target SARS-CoV-2 ORF10. The description is as above. How it is done:
as §1
As for B1, the yeast fitness gain is inactive: -0.0599.

With B2, the yeast fitness gain was inactive: 0.00349.

A further test has as its target SARS-CoV-2 ORF3A. Described as above. The procedure: as §1
On to B1, for which the yeast fitness gain is inactive: -0.0511.

As for B2, the yeast fitness gain was inactive: 0.0703.

Regarding B3, the yeast fitness gain is inactive: 0.0713.

The target of another test is SARS-CoV-2 ORF3B. The description is as above. How it is done: as §1
For B1, the yeast fitness gain is inactive: 0.0516.

For the molecule B2, the yeast fitness gain was inactive: 0.0377.

Consider B3, for which the yeast fitness gain was inactive: 0.0393.

Take B4: the yeast fitness gain is inactive: -0.055.

The target in a further test is SARS-CoV-2 ORF6. Described as above. The procedure: as §1
Take B1: the yeast fitness gain was inactive: 0.0613.

In the case of B2, the yeast fitness gain is inactive: 0.00311.

On to B4, for which the yeast fitness gain is inactive: -0.0635.

The next test deals with SARS-CoV-2 ORF7A. The test is described as above. The procedure:
as §1
Regarding B1, the yeast fitness gain was inactive: 0.0204.

In the case of B2, the yeast fitness gain is inactive: 0.035.

For B4, the yeast fitness gain is inactive: -0.0948.

Another test addresses SARS-CoV-2 ORF7B. Described as above. The procedure:
as §1
As for B1, the yeast fitness gain was inactive: -0.00873.

Turning to B2, the yeast fitness gain is inactive: 0.0113.

On to B3, for which the yeast fitness gain is inactive: -0.0925.

For the molecule B4, the yeast fitness gain was inactive: -0.0515.

A further test has as its target SARS-CoV-2 ORF8. The description is as above. How it is done: as §1
For the molecule B1, the yeast fitness gain was inactive: 0.0594.

For B2, the yeast fitness gain is inactive: 0.0134.

For the next test, the target named is SARS-CoV-2 ORF9B. Described as above. How it is done:
as §1
With B1, the yeast fitness gain was inactive: 0.000164.

Regarding B2, the yeast fitness gain is inactive: 0.0136.

Take B4: the yeast fitness gain is inactive: -0.0334.

The target of a further test is SARS-CoV-2 ORF9Bwu (the 73-codon ORF). The test is described as above. The procedure: as §1
For the molecule B1, the yeast fitness gain is inactive: -0.063.

With B2, the yeast fitness gain is inactive: 0.0408.

Regarding B3, the yeast fitness gain is inactive: -0.0516.

B4: the yeast fitness gain was inactive: -0.0218.

Another test addresses SARS-CoV-2 S. The description is as above. How it is done:
as §1
For B1, the yeast fitness gain is inactive: 0.045.

As for B2, the yeast fitness gain was inactive: -0.0339.

In the case of B3, the yeast fitness gain is inactive: -0.0673.

Take B4: the yeast fitness gain was inactive: -0.295.

Another test addresses SARS-CoV-2 N. The description is as above. The procedure:
as §1
As for B2, the yeast fitness gain is inactive: 0.0447.

B3: the yeast fitness gain is inactive: 0.0475.
